Hit rate of the full screen: of about 45,000 compounds, about 65 (0.1%) were called active. Calls follow the shape of the dose curve; as a rule, active = well fitted activation curve with a large enough effect; inconclusive = small, poorly fitted or top-dose-only effect; inactive = no such curve, though single readings can be large or run the other way. The list shows a part of the results.
What follows are molecules tested against Galactocerebrosidase (Homo sapiens) (UniProt P54803) (assay: A Novel Cell-Based Assay to Identify Small Molecules for B -Galactocerebrosidase). Conditions: 145M-Twi-hGALC-G270D cells (Twitcher mouse brain line with human GALC G270D), HMU-beta-Gal fluorescence, 48 h; series mostly up to 57.5 µM; activation: at the top concentration.
Sequence of UniProt P54803 (P54803 whole entry, looked up): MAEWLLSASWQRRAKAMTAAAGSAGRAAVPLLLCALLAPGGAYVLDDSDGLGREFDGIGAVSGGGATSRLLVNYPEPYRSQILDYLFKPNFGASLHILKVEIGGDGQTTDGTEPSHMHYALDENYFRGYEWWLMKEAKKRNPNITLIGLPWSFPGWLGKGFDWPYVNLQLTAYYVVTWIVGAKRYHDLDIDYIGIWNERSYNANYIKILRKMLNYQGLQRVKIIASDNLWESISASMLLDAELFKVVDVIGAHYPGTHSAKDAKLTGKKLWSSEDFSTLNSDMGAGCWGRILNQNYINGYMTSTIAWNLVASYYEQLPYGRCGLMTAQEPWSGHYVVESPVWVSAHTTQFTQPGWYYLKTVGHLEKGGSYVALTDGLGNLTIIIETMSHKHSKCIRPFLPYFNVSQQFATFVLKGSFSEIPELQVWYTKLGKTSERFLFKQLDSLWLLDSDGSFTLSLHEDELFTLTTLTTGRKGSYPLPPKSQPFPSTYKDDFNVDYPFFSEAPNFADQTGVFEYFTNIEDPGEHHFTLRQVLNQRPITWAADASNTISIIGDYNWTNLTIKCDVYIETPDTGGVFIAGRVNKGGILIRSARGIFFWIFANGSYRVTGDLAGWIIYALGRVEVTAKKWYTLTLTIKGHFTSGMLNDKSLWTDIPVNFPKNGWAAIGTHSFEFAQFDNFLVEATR
Summary of the method: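 Mutant human GALC (G270D), stably expressed in a Twitcher mouse brain cell line lacking endogenous GALC, is measured in live-treated cells via 6-hexadecanoylamino-4-methylumbelliferyl-β-galactoside hydrolysis (0.1 mM final, pH 5.2) with fluorescent detection.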
Also: 0% is about no effect; nearly all actives have a fitted effect of over 65% in size.

activation, inactive:
C[C@]12CC[C@@H]3c4ccc(O)cc4CC[C@H]3[C@@H]1CCC2=O -17.6%, COc1nc(-c2ccc(C)cc2)ccc1-c1noc(-c2ccccc2Br)n1 -8.08%, COC(=O)c1ccc(Cl)cc1NC(=O)N1CCCn2nc(C)cc21 -29.9%, COc1cc(OC)c(NC(=O)CCCn2nc(C)c3sc4ccccc4c3c2=O)cc1Cl -1.78%, COc1ccc(-c2oc3ncn4nc(-c5ccccc5Br)nc4c3c2-c2ccc(OC)cc2)cc1 -18.9%, COc1ccccc1CNc1ccc(-c2nc(C)no2)cc1[N+](=O)[O-] -16.6%, Cc1oc2ncn(CC(C)C)c(=O)c2c1C(=O)N1CCN(c2ccc(F)cc2)CC1 4.95%, O=C(c1ccc(C(F)(F)F)cc1)N1CCC(c2nc(-c3ccc(S(=O)(=O)N4CCCC4)cc3)no2)CC1 -2.48%, COc1cccc(NC(=O)/C(C#N)=C\c2cn(Cc3ccc(C)cc3)c3ccccc23)c1 -19.6%, COc1cccc2c1Oc1ncccc1N(C(=O)CCC(=O)NCc1ccc(N(C)C)cc1)C2 -9.5%, O=C(CN1CCCN(Cc2ccc(Cl)cc2)S1(=O)=O)Nc1ccccc1F 3.23%, COc1cccc(NC(=O)c2oc3ccccc3c2NC(=O)c2ccc(C(F)(F)F)cc2)c1 -7.12%, Cc1ccc(C)c(NC(=O)Cn2cc(C(=O)C3CCCCC3)c3ccccc32)c1 -9.73%, O=C(c1ccc2c(c1)N(Cc1cccc(Cl)c1)C(=O)c1ccccc1S2(=O)=O)N1CCCCC1 -7.73%, Cc1ccc2[nH]c3c(=O)n(CC(=O)N(C)c4cc(Cl)ccc4C)ncc3c2c1 -4.14%, CC1=C(c2ccc(C)c(C)c2)S(=O)(=O)N=C1N1CCC(C(=O)NCCc2ccc(Cl)cc2)CC1 -13.2%, CCOc1ccc(NC(=O)N2CC=C(c3c[nH]c4ccccc34)CC2)cc1 -19.6%, CCOC(=O)c1c(C)[nH]c(C)c1S(=O)(=O)N1CCC(C(=O)N2CCN(c3ccc(Cl)cc3)CC2)CC1 -1.14%, COc1ccccc1NC(=O)c1ccc2c(Cl)c3c(nc2c1)CCCC3 -5.87%, COc1ccc(-n2c(=O)c3c4c(sc3n(Cc3ccccc3)c2=O)CN(C(C)=O)CC4)cc1OC -1.01%, CC(=O)OCc1cnc(C)c2oc(=O)c(C(=O)Nc3cccc(F)c3)cc12 -6.83%, COc1cc(Cl)c(C)cc1NC(=O)c1cc2ccc3cccnc3c2[nH]1 -29.1%, O=C(c1cc(=O)c2cc(Cl)ccc2o1)N(Cc1ccccc1)C1CCS(=O)(=O)C1 (stereo not given) -13.9%, COc1ccc(Cl)cc1-n1nnc(-c2nc(-c3ccc4c(c3)OCO4)no2)c1C -8.21%, CCCNC(=O)C1CCC(Cn2c(=O)c3sccc3n(Cc3ccccc3C)c2=O)CC1 (stereo not given) -2.32%
